Experimental data reported in PubChem BioAssay AID1963576 (National Center for Advancing Translational Sciences (NCATS), 2024).
The campaign covered roughly 46,000 compounds. About 60 (0.1%) were called active. Another 3% or so got no clear call; they are omitted. Calls follow the shape of the dose curve; as a rule, active = well fitted inhibition curve with a large enough effect; inconclusive = small, poorly fitted or top-dose-only effect; inactive = no such curve, though single readings can be large or run the other way. The list shows a part of the results.

Test: Primary qHTS assay for Inhibitors of ovarian cancer metastasis using an organotypic tumor microenvironment (TME) model. Also: nearly all actives have a fitted effect of over 65% in size.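 As to activity change, negative = inhibition: plate controls were DMSO wells for no effect and tomatine positive control wells for full effect.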
Settings: SKOV3ip1-GFP adhesion/invasion on 3D omental model, fluorescence; series mostly up to 45.8 µM; activity change, negative = inhibition: at the top concentration
Method in brief: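 Primary human omental fibroblast/mesothelial 3D culture pre-formed 48 h. SKOV3ip1-GFP cells added with compounds (0.36-46 umol/L), incubated 2 h RT/16 h 37 C, fixed; GFP cells quantified at 488/509 nm.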

Activity change, negative = inhibition, inactive:
CCn1c(CNC(=O)c2ccc(OC)cc2)nnc1SCC(=O)Nc1cccc(C)c1C 5.4%
CCOc1ccc(-c2nnc(SCC(=O)NCc3ccc(C)cc3)nc2-c2ccc(OCC)c(OC)c2)cc1OC 0.425%
CCOc1ccc(NC(=O)CSC2=Nc3ccccc3C3=NC(CCC(=O)NCc4cccs4)C(=O)N23)cc1 (stereo unspecified) 12.1%
COc1ccc2c(c1)c1c(c(=O)n(-c3cccc(Cl)c3)c(=O)n1CC(=O)NCC1CCCO1)n2C (stereo unspecified) 43.8%
Cc1nn(-c2ccccc2)c(OC(=O)c2ccccc2Cl)c1S(=O)(=O)c1ccccc1 -16.9%
CCOc1ccc(-n2cc(-c3ccccc3)c3c(NC4CCCCC4)ncnc32)cc1 -17.8%
CCOC(=O)c1[nH]c(C)c(CCC(=O)Nc2cccc(C(F)(F)F)c2)c1C 2.57%
CC(CNC(=O)c1nnc(Cc2cccc(F)c2)o1)c1ccccc1 (stereo unspecified) -2.98%
COc1cc(CNCCSc2nnnn2C)ccc1OCc1ccc(F)cc1 9.54%
CCc1nn2c(=O)cc(COC(=O)c3ccccc3NC(=O)COc3ccc(F)cc3)nc2s1 -3.43%
COCCNC(=O)Cn1cnc2sc(C)c(S(=O)(=O)N3CCN(c4ccccc4OC)CC3)c2c1=O -6.91%
COc1ccccc1C(=O)NCCSc1c(C)[nH]c2ccccc12 -11.3%
CC(=O)c1cccc(NC(=O)[C@H](Cc2ccccc2)N2Cc3ccccc3C2=O)c1 -20.3%
CCC(NC(=O)Nc1ccc(OC)c(OC)c1)c1c(-n2cccc2)sc2c1CCN(C)C2 (stereo unspecified) 4.35%
COc1ccc(N2CC(NC(=O)C3CC3)CC2=O)cc1 (stereo unspecified) -12%
COc1ccc(-c2nc3ccccc3o2)cc1NC(=O)C(C)(C)Oc1ccc(Br)cc1 -2.47%
Cc1cccc(NC(=O)C2CCCN(S(=O)(=O)c3c(C)[nH]c(=O)[nH]c3=O)C2)c1C (stereo unspecified) -26.5%
COc1ccc(CCNC(=O)c2ccc3c(c2)N=C(C)c2cc(C)ccc2S3)cc1OC -26.2%
COc1cccc(NC(=O)CSc2nc(=O)n(Cc3ccccn3)c3c2CCC3)c1 0.236%
O=c1oc2ccc3ccccc3c2cc1-c1nnc(Nc2ccc(Cl)cc2Cl)s1 -1.11%
COc1cccc(N2CCN(C(=O)CCS(=O)(=O)c3ccc4c(c3)CC(=O)N4C)CC2)c1 1.64%
COc1ccc2cc([S+]([O-])Cc3ncc(C)c(OC)c3C)nc2c1 -5.18%
Cc1ccc(NC(=O)c2cn3c4c(ccc(Cl)c4c2=O)OC(C)C3)cc1C (stereo unspecified) -8.61%
CCOc1cc2sc(N3CCC(C(=O)Nc4ccccc4C(=O)OC)CC3)nc2cc1Br 5.68%
O=C(C1CCC(CNS(=O)(=O)c2ccc(Br)s2)CC1)N1CCN(c2ccccc2Cl)CC1 (stereo unspecified) 1.29%
COc1ccc(NC(=O)Cn2c(=O)n(-c3cccc(C)c3)c(=O)c3c2c2cc(C)ccc2n3C)cc1Cl 0.326%
Cc1ncc(CO)c2c1Oc1nc(-c3ccccc3)nc(SCC(=O)N3CCCCC3)c1C2 6.67%
O=C(NCc1ccccc1)[C@H](Cc1ccccc1)NC(=O)[C@@H]1O[C@@H]1C(=O)NCCc1ccc(O)cc1 -4.96%
Cc1ccc(CNC(=O)C2CCN(S(=O)(=O)Cc3ccccc3)CC2)cc1 4.89%
CN(C)c1ccc(CNC(=O)C2CCCN(S(=O)(=O)c3ccc4c(ccn4C)c3)C2)cc1 (stereo unspecified) 8.31%
CCOc1ccccc1NC(=O)Cn1c(=O)oc2cc(S(=O)(=O)NCc3ccccc3)ccc21 -5.11%
Cc1nc(-c2ccc(OCC(C)C)c(C#N)c2)sc1C(=O)O -5.48%
CCOC(=O)c1cccc(NC(=O)c2cc3cc4cc(OC)ccc4nc3s2)c1 17%
CCOC(=O)c1sc(NC(=O)C(C)Oc2ccc(OC)cc2)c(C(=O)OCC)c1C (stereo unspecified) 22.1%
COc1ccc(C(=O)Nc2cc(-c3ccccc3)nn2-c2ccccc2)cc1 -0.356%
COc1ccc(C2N=C(N)Nc3nc4ccccc4n32)c(OC)c1OC (stereo unspecified) 1.93%
CC1=Nc2cc(C(=O)NCc3ccc(C)cc3)ccc2Sc2ccc(Cl)cc21 -9.64%
CCN1CCC(N(Cc2cccc(OC)c2)C(=O)Nc2cccc(C)c2C)CC1 5.21%
COC(=O)C1=C(C)NC(=O)C1(NC(=O)c1ccc(Cl)cc1)C(F)(F)F (stereo unspecified) 0.898%
CC(=O)[C@H]1CC[C@H]2[C@@H]3CC=C4C[C@@H](O)CC[C@]4(C)[C@H]3CC[C@]12C 33.4%
CCc1ccc(NC(=O)N2CCN(Cc3nc4ccc(C)cc4o3)CC2)cc1 0.82%
O=C(CSc1nc2c([nH]c3ccccc32)c(=O)n1-c1ccc(Cl)cc1)NC1CCCCC1 6.81%
Cc1ccc(N2CCN(C(=O)c3cn(C)c4ccc(S(=O)(=O)N5CCCC5)cc4c3=O)CC2C)cc1 (stereo unspecified) -0.46%
COc1ccccc1NC(=O)c1c(C)cc(C)nc1SCC(=O)Nc1ccc(C)cc1 -23.9%
COc1ccc(CC2c3cc(OC)c(OC)cc3CC[N+]2(C)CCC(=O)OCCCCCOC(=O)CC[N+]2(C)CCc3cc(OC)c(OC)cc3C2Cc2ccc(OC)c(OC)c2)cc1OC (stereo unspecified) 13.2% [at 5.15 µM]
Cc1ccc2c(c1)c(=O)c1ccccc1n2CCCC(=O)Nc1ccc(Cl)c(Cl)c1 -0.693%
Cc1cc(C)cc(-n2c(SCC(=O)NCc3ccc(F)cc3)nc3c([nH]c4ccccc43)c2=O)c1 -20.4%
COc1cc(NC(=O)CSc2nc(-c3ccccc3)no2)cc(OC)c1 -2.22%
O=C(C1CCC(Cn2c(=O)c3sccc3n(Cc3ccccc3F)c2=O)CC1)N1CCOCC1 (stereo unspecified) 0.731%
COc1cc(NC(=O)c2cc3c(=O)n(Cc4ccco4)ccc3nc2C)cc(OC)c1OC 1.19%
COC(=O)c1sc(-c2ccccc2)cc1NC(=O)c1cccc(Cl)c1 -0.184%
COc1cccc(NC(=O)CN2C(=O)CC(c3ccco3)Sc3ccccc32)c1 (stereo unspecified) 11.4%
O=C(Nc1nc(-c2ccccc2)ns1)c1ccc(Cl)cc1 23.8%
COc1ccccc1N1CCN(C(=O)c2ccc3c(c2)N(Cc2cc(C)ccc2C)C(=O)c2ccccc2S3(=O)=O)CC1 1.83%
COc1ccc(CN(C(=O)c2cc(=O)c3ccccc3o2)C2CCS(=O)(=O)C2)cc1OC (stereo unspecified) -5.94%
Cc1cccc(NC(=O)C(NS(=O)(=O)c2cccc3nsnc23)c2ccccc2)c1C (stereo unspecified) 6.61%
CC(C(=O)O)c1ccc2c(c1)CC(=O)c1ccccc1S2 (stereo unspecified) -23%
CCOC(=O)N1CCc2c(sc(NCc3cccs3)c2C(=O)Nc2cc(Cl)ccc2OC)C1 1.13%
CCOC(=O)c1ccc(NS(=O)(=O)c2ccc3c(c2)CCN3C(=O)CC)cc1 7.51%
Cc1ccc(C(=O)NCC(c2ccco2)S(=O)(=O)c2ccccc2)cc1C (stereo unspecified) 16.3%
CCOC(=O)c1c(C)c(-c2ccccc2)n(CC(=O)NCc2ccccc2)c1C -25.3%
CC(C)(C)OC(=O)N1CCC(c2c(C(=O)N3CCN(c4ccccn4)CC3)cnn2-c2cccc(F)c2)CC1 6.3%
Cc1ccc(NC(=O)Cn2c(=O)n(Cc3ccco3)c(=O)c3sc4ccccc4c32)c(C)c1 -12.3%
COc1ccc(-n2nc(C(=O)N3CCCCC3)c3c4ccccc4n(C)c3c2=O)cc1Cl -13.9%
Cc1ccc(S(=O)(=O)c2nnn(CC(=O)Nc3ccccc3C)c2N)cc1 -28.6%
Cc1cc(C)c(Cn2c(=O)n(Cc3ccccc3)c(=O)c3c(C)c(C)sc32)c(C)c1 -1.27%
O=C(Nc1cccc(C(F)(F)F)c1)c1cc2nc(-c3ccco3)cc(C(F)(F)Cl)n2n1 50.5%
COc1cc(Nc2nc3ccc(Cl)cc3nc2-n2nc(C)cc2C)cc(OC)c1 -9.01%

outcome, inactive:
Cc1ccc(CNC(=O)CCS(=O)(=O)c2ccc3c(c2)CC(C)N3C(=O)C2CC2)cc1 (stereo unspecified)
CCc1ccc(NC(=O)Cn2c(=O)c(CNc3ccccc3)cc3cc(OC)c(OC)cc32)cc1
O=C(Cn1c(=O)oc2cc(S(=O)(=O)N3CCCC3)ccc21)NCc1ccc(Cl)cc1
CCOCCCNC(=O)c1cc2c(=O)n(C)c3ccccc3c2n1C
CS(=O)(=O)N1CCc2cc(C(=O)Nc3ccc(Cl)c(C(F)(F)F)c3)ccc21
CCN(CC)C(=O)Cn1c(=O)n(Cc2ccc(C(=O)NCc3ccc(C)cc3)cc2)c(=O)c2ccccc21
COc1ccc(C)cc1NC(=O)CN1C(=O)COc2ccc(S(=O)(=O)N3CCOCC3)cc21
Cc1ccc(NC(=O)COc2ccc(-c3nn(C)c(=O)c4ccccc34)cc2)cc1
O=C(COCc1cc(-c2cccs2)on1)Nc1cc(Cl)ccc1O
CCCCNC(=O)Nc1ccc2c(c1)N(C)C(=O)c1ccccc1S2
CCN(CC)C(=O)CN1C(=O)COc2ccc(S(=O)(=O)N3CCOCC3)cc21
CC(=O)Nc1ccc(S(=O)(=O)NCC2CCC(C(=O)NCc3ccccc3)CC2)cc1 (stereo unspecified)
CCOc1cc(C(Nc2cc(C)ccn2)c2ccc3cccnc3c2O)ccc1OC (stereo unspecified)
Cc1cc(Nc2cccc(Br)c2)n2c(nc3ccccc32)c1C#N
COc1ccc(NC(=O)Cn2nnc(C(=O)NCc3ccco3)c2N)c(OC)c1
CCOc1ccc(NC(=O)CN2C(=O)c3ccccc3Sc3ccc(C(=O)OC)cc32)cc1
Cc1cccc(C)c1NC(=O)C(=O)NCC(c1cccnc1)N1CCc2ccccc21 (stereo unspecified)
CCN(CC)c1ccc(NC(=O)C2CCN(S(=O)(=O)c3ccc4c(c3)oc(=O)n4C)CC2)c(C)c1
COc1cc2c(=O)c(S(=O)(=O)c3ccc(C(C)C)cc3)cn(Cc3ccccc3C)c2cc1OC
COc1ccc(N2CCN(S(=O)(=O)c3cc(Br)cc4c3N(C(=O)C3CC3)CC4)CC2)cc1
CCOC(=O)c1cc(-c2ccccc2)n(CCC(=O)NCCc2ccc(C)cc2)c1C
O=C(CSc1nccn1Cc1ccccc1)Nc1nc2ccccc2s1
O=C(CN1C(=O)COc2ccc(S(=O)(=O)NC3CCCC3)cc21)NCc1ccccc1Cl
